The campaign covered roughly 52,000 compounds. About 1,700 (3.3%) were called active. Cut-off read from the data, not from the text of the source: active = survival mostly below about 52% (no sharp cut-off); inactive = mostly above about 56%. This is one part of the list.
Each compound was assayed on Wild type (assay: growth inhibition of S. aureus wild type versus tarO mutant, primary screen, teichoic acid synthesis inhibitors, RN4220, OD600 (AID 463173)). Details: S. aureus RN4220 wild type/DeltatarO growth, OD600, 18 h, active compounds read low, screened at 18.75 µg/mL (by protocol).

Row | Compound | survival
1 | CC(C)N(Cc1ccccc1)S(=O)(=O)c1ccc(F)cc1 | inactive: 113%
2 | COc1ccc(Nc2ncc(C(=O)N3CCN(c4ccc(F)cc4)CC3)c3ccccc23)cc1 | inactive: 76%
3 | COc1ccc(-c2nc3scc(CCNS(=O)(=O)c4ccc(NC(C)=O)cc4)n3n2)cc1 | inactive: 63%
4 | O=S(=O)(NC1CC1)c1ccc(S(=O)(=O)N(Cc2ccccn2)C2CC2)cc1 | inactive: 104%
5 | COc1cc2nc(SCC(=O)Nc3ccccc3F)n3nc(-c4ccccc4)nc3c2cc1OC | inactive: 71%
6 | CCOC(=O)c1ccc(NC2SC(=O)N(Cc3cccc(C(=O)O)c3)C2=O)cc1 (centres undefined) | inactive: 66%
7 | CCc1ccc(NC(=O)CSc2nc3c(sc4ccccc43)c(=O)n2CCCOC(C)C)cc1 | inactive: 80%
8 | CCOc1ccc(Cn2c(CNS(=O)(=O)c3cccc(Cl)c3)nc3cccnc32)cc1 | inactive: 75%
9 | COc1ccc(-c2nc3ccc(NS(=O)(=O)c4ccc(Cl)cc4)cc3o2)cc1 | inactive: 23%
10 | Cc1ccc(CNC(=O)c2ccc(CSCc3ccccc3C)o2)cc1 | inactive: 82%
11 | Cc1ccc(NCc2nnc(SCc3nc4ccccc4c(=O)[nH]3)n2Cc2ccco2)c(C)c1 | inactive: 104%
12 | COc1ccccc1C(=O)N1CCN(Cc2cc(=O)oc3cc(C)ccc23)CC1 | inactive: 74%
13 | CCCCN(CC)C(=O)Cn1ncc2c3ccccc3n(CCC)c2c1=O | inactive: 98%
14 | COc1ccc(-n2cc(C(=O)NCc3ccccc3Cl)c3ccccc3c2=O)cc1 | inactive: 113%
15 | CCCc1cc(-c2ccc(O)c(OCC)c2)c(C#N)c(N)n1 | inactive: 105%
16 | COc1ccccc1NC(=O)CSC1=Nc2ccccc2C2=NC(CCC(=O)NCc3cccs3)C(=O)N12 (centres undefined) | inactive: 71%
17 | CCCNC(=O)Cn1nc(-c2ccc(F)cc2)c2cnc3ccc(F)cc3c21 | inactive: 82%
18 | CCOc1cccc(C(=O)N(Cc2ccc(CC)cc2)C2CCS(=O)(=O)C2)c1 (centres undefined) | inactive: 141%
19 | Cn1c(=O)[nH]c2cc(-c3noc(-c4cccc(Cl)c4)n3)ccc21 | inactive: 76%
20 | CCC(C)NC(=O)c1cccc(NC(=O)c2nsc3ccccc23)c1 (centres undefined) | inactive: 76%
21 | CC(C)(C)c1ccc(Cn2c(=N)n(CC(O)c3ccco3)c3ccccc32)cc1 (centres undefined) | active: 53%
22 | Cc1ccc(Cl)cc1N(C)C(=O)c1cn(C2CCCCC2)c(=O)c2c1c1ccccc1n2C | inactive: 90%
23 | CC(=O)C1=C(c2ccc(Cl)cc2)N(C(C)=O)n2c(nnc2C2CCCCC2)S1 | inactive: 85%
24 | O=C(O)C1CC(=O)N(CCCN2CCOCC2)C1 (centres undefined) | inactive: 113%

Reference: PubChem BioAssay AID463173 (ICCB-Longwood Screening Facility, Harvard Medical School, 2010)
